Assay results taken from PubChem BioAssay (NCI).
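Cells were grown in 96-well plates and exposed to each compound for 48 hours at five concentrations; endpoints were interpolated linearly between bracketing concentrations, or set to the highest concentration if not reached. TGI: total growth inhibition.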 Certain results were filed several times, with different values. They are shown here; other results are not. An entry can have further records. A record mostly stands for its own series of concentrations, which the source does not state; some values may only mark the edge of a range.

Tests used:
Test in all cases: DTP human tumour cell line panel, 48 h
SR leukemia = system: SR leukemia
KM12 colon = system: KM12 colon
HT29 colon = system: HT29 colon

COc1cc2cc(C(=O)N3C[C@@H](CCl)c4c3cc(OC(=O)N3CCN(C(=O)CCC(=O)N5CCN(C)CC5)[C@@H]5CSSC[C@@H]53)c3ccccc43)[nH]c2c(OC)c1OC
TGI (SR leukemia): 25 µM and 925 nM | TGI (KM12 colon): 25 µM and 464 nM | TGI (HT29 colon): 25 µM and 435 nM
